Data as given in PubChem BioAssay AID1345083 (National Center for Advancing Translational Sciences (NCATS), 2018).
Values joined by “and” are separate entries in the source; they are usually repeats but may differ in a detail not shown here. Equal values may be shown once. Screen size: about 94,000 compounds; about 6,200 (6.6%) were called active. Inconclusive results, whose numbers are uncertain, are shown with a selection of clear calls. The call rests on the fitted dose curve; in most records, active means well fitted inhibition curve with a large enough effect; inconclusive means small, poorly fitted or top-dose-only effect; inactive means flat fitted curve, though single readings scatter. Potencies of inconclusive entries are doubtful fits and often do not repeat.

experiment: Cytotoxic Profiling in HEK 293 Cell Line of Diverse Libraries Using Quantitative High-Throughput Screening; conditions: HEK 293 viability, ATP luminescence (CellTiter-Glo), 48-72 h; series mostly up to 115 µM; further: nearly all actives have a fitted effect of over 60% in size
Method in brief: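 CellTiter-Glo luminescence (cellular ATP) was read after 48 or 72 hr of compound exposure at 37 degree Celsius. Cells were HEK 293 plated at 250 cells/well.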
Potency means the concentration at half of the fitted maximal effect; tags describe the fitted curve by direction and shape.

| SMILES | Potency |
| --- | --- |
| COCc1ccc2c(c1)c(OC(C)(C)C(=O)NC1CCC(O)CC1)nn2Cc1ccccc1 (stereo not drawn) | inactive |
| O=C(C[C@H]1NC(=O)c2ccccc2NC1=O)Nc1n[nH]c(CCC2CCCC2)n1 | inconclusive: 39.8 µM [inhibitor, partial curve, poor fit] |
| COc1cccc(CN2CCCC(c3nc(-c4cnccn4)no3)CCNC(=O)CC2)c1OC (stereo not drawn) | inconclusive: 89.1 µM [inhibitor, single point] |
| CCOCC(=O)N1[C@@H]2CC[C@H]1CC(NC(=O)c1cnc(C)cn1)C2 (stereo partly drawn) | inactive |
| COCCN1CCNc2nc(COc3ccc(C(C)C)cc3)n(Cc3ccccc3)c2C1=O | active: 63.1 µM |
| CCn1c(CC2CCN(Cc3ccccc3C#N)CC2)nn(C)c1=O | inactive |
| CN(C)C(C(=O)N(Cc1cccc(O)c1)C1CC1)c1ccccc1F (stereo not drawn) | inconclusive: 79.4 µM [inhibitor, single point] |
| COc1cc(CC(=O)N2Cc3[nH]cnc3CC2C(=O)O)cc(OC)c1OC (stereo not drawn) | inactive |
| O=C(Cn1nc2c(cc1=O)CCCC2)Nc1nc(-c2ccc3c(c2)OCCCO3)cs1 | inactive |
| Cc1nn(-c2ccccc2)c2c1C(C)N(C1CCN(C(=O)C3CC3)CC1)C2=O (stereo not drawn) | inconclusive: 89.1 µM [inhibitor, single point] |
| Cc1ccc(-c2nnc(C3CN(C(=O)c4ccc(C)c(F)c4)CC34CCOCC4)o2)cc1 (stereo not drawn) | inconclusive: 89.1 µM [inhibitor, partial curve, poor fit] |
| CCN1c2cc(C(=O)Nc3ccc(F)c(F)c3)ccc2C(=O)N2CCCCCC21 (stereo not drawn) | inconclusive: 39.8 µM [inhibitor, partial curve, poor fit] |
| CCc1nnsc1C(=O)NC(C)c1cnn(-c2ccccc2C)c1C (stereo not drawn) | inconclusive: 50.1 µM [inhibitor, partial curve, poor fit] |
| COc1ccccc1NC(=O)Nc1ccnn1C1CCN(C(=O)CN)CC1 | inactive |
| COc1cccc(-c2ccc(C(=O)N3CCC(N[S+](=O)([O-])c4cccc(C(F)(F)F)c4)CC3)cc2)c1 | active: 11.2 µM |
| COc1cccc(NC(=O)[C@@H]2C[C@@H](c3cccc(C(F)(F)F)c3)N(CC3CCOCC3)C2)c1 | inconclusive: 31.6 µM [inhibitor, full curve, poor fit] |
| O=C(NCc1ccccc1)c1nc2c(o1)CCN(CC1CCCC1)CC2 | inconclusive: 39.8 µM [inhibitor, partial curve, poor fit] |
| CN1Cc2ncnc(N3CCN(Cc4ccccc4)CC3)c2CN(C2CCC2)C1=O | inactive |
| CC(=O)NC1(C)CN(Cc2ccc(-c3cccc(F)c3)nc2)C1 | inconclusive: 112 µM [inhibitor, partial curve, poor fit] |
| Cc1nn(-c2ccccc2[N+](=O)[O-])c(C)c1[C@@H]1C=C[C@@H](NCc2ccco2)C1 | active: 89.1 µM |
| Cc1cc(Cn2cc3c4c(cccc42)[C@H](CC(C)C)N[C@H](C(=O)NC2CCCC2)C3)no1 | active: 39.8 µM |
| COc1ccc(-c2cc(N3CCN(C(=O)Cc4ccc(C)cc4)CC3)n[nH]2)cc1 | inactive |

| SMILES | Potency |
| --- | --- |
| O=C(NCc1ccccc1F)c1ccc2oc(-c3cccnc3Cl)nc2c1 | inconclusive: 35.5 µM [inhibitor, partial curve, poor fit] |
| COCCCNC(=O)C1CCc2nnc(C3CC3)n21 (stereo not drawn) | inactive |
| CCn1cc(-c2ccccc2)cc1C(=O)NC1CCCC1 | inactive |
| Cc1nnc(-c2cc(C(=O)Nc3cccnc3)ccn2)n1CCc1ccccc1 | inactive |
| CCc1cnc(N)nc1N1CCC(Oc2ccc(F)cc2)CC1 | inconclusive: 44.7 µM [inhibitor, partial curve, poor fit] |
| COc1ccc(CC(=O)NC2CCN(c3ccnc4ccnn34)CC2)cc1 | inactive |
| COc1ccc2nc([C@H]3CCN(Cc4cccc(C#N)c4)C3)[nH]c2c1 | active: 39.8 µM |
| NC(=O)[C@@H](Cc1ccccc1)NC(=O)[C@@H]1C[C@@H](NS(=O)(=O)c2cccs2)CCN1C(=O)CSCC(=O)O | inactive |
| O=C(NCC1CN(C(=O)Cc2cccc(OC(F)(F)F)c2)CC12CN(c1ccccc1)C2)Nc1ccccc1 (stereo not drawn) | inconclusive: 28.2 µM [inhibitor, full curve, poor fit] |
| COC(=O)CNC(=O)c1cc(-c2cccc(C(F)(F)F)c2)c2nncn2n1 | inconclusive: 50.1 µM [inhibitor, partial curve, poor fit] |
| O=C(c1ccccc1F)N1CCC(Oc2ncccc2C(=O)N2CCCCC2)C1 (stereo not drawn) | inactive |
| CC[C@@H]1[C@@H](NC(=O)CSCc2ccccc2Cl)[C@@H]2CCO[C@H]12 | inconclusive: 56.2 µM [inhibitor, partial curve, poor fit] |
| O=C(Cc1ccccc1F)N1CCC2(CC1)CN(C1CCC1)CC2CO (stereo not drawn) | inconclusive: 50.1 µM [inhibitor, partial curve, poor fit] |
| Cc1ccc(-c2noc([C@@H]3C[C@H](NS(=O)(=O)c4ccc(F)cc4)CN3C)n2)cc1 | inconclusive: 89.1 µM [inhibitor, partial curve, poor fit] |
| C[S+](=O)([O-])N1CC2ON=C(C(=O)N3CCN(c4ncccn4)CC3)C2C1 (stereo not drawn) | inactive |
| O=C(NCC1CN(C(=O)Cc2ccc(Oc3ccccc3)cc2)CC12CN(c1ccccc1)C2)c1cccnc1 (stereo not drawn) | inconclusive: 50.1 µM [inhibitor, partial curve, poor fit] |
| CCCNC(=O)N1CCCC1c1nc(C2CCOCC2)no1 (stereo not drawn) | inactive |
| O=C1[C@@H]2C[C@@H](CN2Cc2cccc(Cl)c2)Oc2ccccc2N1CC1CC1 | inconclusive: 63.1 µM [inhibitor, partial curve, poor fit] |
| CCOc1ccc2c(n1)CCN(C(=O)c1ccco1)C2 | inactive |
| CC(NC(=O)OCc1ccccc1)c1nc2cccnc2n1C1CCCC1 (stereo not drawn) | inconclusive: 79.4 µM [inhibitor, single point] and inconclusive: 89.1 µM [inhibitor, single point] |
| COc1ccc(S(=O)(=O)NCCc2noc(-c3ccncc3)n2)cc1 | inconclusive: 28.2 µM [inhibitor, full curve] |
